# The other results are listed elsewhere or left out.
# B1: PhoQ; a variant is named by its letters at X, in order, P23837 (parent)
# chain: MKKLLRLFFPLSLRVRFLLATAAVVLVLSLAYGMVALIGYSVSFDKTTFRLLRGESNLFYTLAKWENNKLHVELPENIDKQSPTMTLIYDENGQLLWAQRDVPWLMKMIQPDWLKSNGFHEIEADVNDTSLLLSGDHSIQQQLQEVREDDDDAEMTHSVAVNVYPATSRMPKLTIVVVDTIPVELKSSYMVWSWFIYVLSANLLLVIPLLWVAAWWSLRPIEALAKEVRELEEHNRELLNPATTRELTSLVRNLNRLLKSERERYDKYRTTLTDLTHSLKTPLXXLQXXLRSLRSEKMSVSDAEPVMLEQISRISQQIGYYLHRASMRGGTLLSRELHPVAPLLDNLTSALNKVYQRKGVNISLDISPEISFVGEQNDFVEVMGNVLDNACKYCLEFVEISARQTDEHLYIVVEDDGPGIPLSKREVIFDRGQRVDTLRPGQGVGLAVAREITEQYEGKIVAGESMLGGARMEVIFGRQHSAPKDE
# Variants of: B1
# Assay: enrichment ratio after two sorts for PhoP signalling (ratio (wild type AVST 3.29)); higher = more functional
# Conditions: with PhoP (E. coli)
row,Variant,enrichment ratio
1,FSHQ,≤ 0.25
2,FSFE,≤ 0.25
3,NQGL,≤ 0.25
4,DNID,≤ 0.25
5,HDVW,≤ 0.25
6,DWTK,≤ 0.25
7,PMIQ,≤ 0.25
8,MMLD,≤ 0.25
9,MKFN,≤ 0.25
10,MMHN,≤ 0.25
11,IGRP,≤ 0.25
12,EFKS,≤ 0.25
13,EECL,≤ 0.25
14,SKTG,≤ 0.25
15,HSNK,≤ 0.25
16,VHLH,≤ 0.25
17,IECN,≤ 0.25
18,AHFI,≤ 0.25
19,QSGP,≤ 0.25
20,PMSN,≤ 0.25
21,RDVH,≤ 0.25
22,EKVR,≤ 0.25
23,EGFC,≤ 0.25
24,GFNN,≤ 0.25

row,Variant,enrichment ratio
1,TNIG,≤ 0.25
2,PYFT,≤ 0.25
3,RIIS,≤ 0.25
4,HMWN,≤ 0.25
5,HTYK,≤ 0.25
6,WIVT,≤ 0.25
7,KHAR,≤ 0.25
8,PSHI,≤ 0.25
9,FEWF,≤ 0.25
10,DVAF,≤ 0.25
11,ANIL,22.8
12,TILY,≤ 0.25
13,KCIL,≤ 0.25
14,LTEG,≤ 0.25
15,YETF,≤ 0.25
16,SMNA,≤ 0.25
17,TGNC,61.8
18,WEGN,≤ 0.25
19,FDAH,≤ 0.25
20,TLEL,3.77
21,WYIK,≤ 0.25
22,YSCA,≤ 0.25
23,VQKF,≤ 0.25
24,QFAA,≤ 0.25

row,Variant,enrichment ratio
1,QDRH,≤ 0.25
2,GRQC,≤ 0.25
3,QFQW,≤ 0.25
4,NFCH,≤ 0.25
5,IHAA,≤ 0.25
6,TCYM,12.1
7,TGPC,≤ 0.25
8,NGPH,≤ 0.25
9,STGC,5.24
10,MGKT,≤ 0.25
11,PMGS,≤ 0.25
12,IQIG,≤ 0.25
13,RGMI,≤ 0.25
14,HKVD,≤ 0.25
15,TECL,9.66
16,ICGG,≤ 0.25
17,QAAR,≤ 0.25
18,NLHC,≤ 0.25
19,IQYS,≤ 0.25
20,DMPV,≤ 0.25
21,AFCG,11.4
22,KSIT,≤ 0.25
23,MIVN,≤ 0.25
24,VNKP,≤ 0.25

row,Variant,enrichment ratio
1,RFKA,≤ 0.25
2,VWKH,≤ 0.25
3,ETHD,≤ 0.25
4,SWHC,≤ 0.25
5,ADPL,≤ 0.25
6,SFQV,≤ 0.25
7,LFDH,≤ 0.25
8,ARLT,0.509
9,FYFF,≤ 0.25
10,YLYN,≤ 0.25
11,PKNV,≤ 0.25
12,HFIW,≤ 0.25
13,LQPF,≤ 0.25
14,IWNT,≤ 0.25
15,ASFV,≤ 0.25
16,TQDL,≤ 0.25
17,IFLH,≤ 0.25
18,FVVR,0.322
19,MNDF,≤ 0.25
20,IMWG,≤ 0.25
21,KTYT,≤ 0.25
22,EVNN,≤ 0.25
23,ETPM,≤ 0.25
24,VCDT,≤ 0.25

row,Variant,enrichment ratio
1,VGYN,≤ 0.25
2,PAYD,≤ 0.25
3,AISY,5.51
4,AIQC,≤ 0.25
5,DNGV,≤ 0.25
6,YRQH,≤ 0.25
7,DYIP,≤ 0.25
8,QVTA,≤ 0.25
9,RRDH,≤ 0.25
10,NQPA,≤ 0.25
11,VKNI,≤ 0.25
12,FFDL,≤ 0.25
13,IQVH,≤ 0.25
14,QATR,≤ 0.25
15,FEKK,≤ 0.25
16,KHQS,≤ 0.25
17,LMRG,≤ 0.25
18,QLAY,≤ 0.25
19,MMYF,≤ 0.25
20,RCRM,≤ 0.25
21,DMFR,≤ 0.25
22,HRFY,≤ 0.25
23,PWTM,≤ 0.25
24,SVCM,14.2

row,Variant,enrichment ratio
1,FWSC,≤ 0.25
2,ECLN,≤ 0.25
3,YPFQ,≤ 0.25
4,AMQK,≤ 0.25
5,VVST,≤ 0.25
6,RFKV,≤ 0.25
7,ERPR,≤ 0.25
8,PGNC,≤ 0.25
9,WWSN,≤ 0.25
10,NVEH,≤ 0.25
11,VGHG,≤ 0.25
12,EDFS,≤ 0.25
13,QCTS,≤ 0.25
14,KFIM,≤ 0.25
15,NMGG,≤ 0.25
16,PSDC,≤ 0.25
17,RRMM,≤ 0.25
18,WSNL,≤ 0.25
19,RIDT,≤ 0.25
20,TNVC,≤ 0.25
21,YVGV,≤ 0.25
22,MPTL,≤ 0.25
23,RGTG,≤ 0.25
24,HDES,≤ 0.25

row,Variant,enrichment ratio
1,WFED,≤ 0.25
2,ASHC,≤ 0.25
3,HIPK,≤ 0.25
4,FASA,≤ 0.25
5,KRPY,≤ 0.25
6,VPDQ,≤ 0.25
7,WVKI,≤ 0.25
8,RVWY,≤ 0.25
9,SGRV,≤ 0.25
10,YYKC,≤ 0.25
11,PCLI,≤ 0.25
12,LGAM,≤ 0.25
13,AGDE,≤ 0.25
14,ADAY,≤ 0.25
15,TATV,13.6
16,SVNF,8.6
17,VYFH,≤ 0.25
18,WTTH,≤ 0.25
19,WSFY,≤ 0.25
20,LWPC,≤ 0.25
21,YNAR,≤ 0.25
22,HYVQ,≤ 0.25
23,RIAK,≤ 0.25
24,MVTD,≤ 0.25

row,Variant,enrichment ratio
1,PTSM,≤ 0.25
2,QGSH,9.79
3,KFPY,≤ 0.25
4,GFKK,≤ 0.25
5,GLNH,≤ 0.25
6,GSQY,≤ 0.25
7,QYYS,≤ 0.25
8,NPMN,≤ 0.25
9,VHFF,≤ 0.25
10,PMVA,≤ 0.25
11,SLCW,0.501
12,VKEY,≤ 0.25
13,SEHF,≤ 0.25
14,SLWP,≤ 0.25
15,AIQM,≤ 0.25
16,VCNF,≤ 0.25
17,FMWI,≤ 0.25
18,FHSE,≤ 0.25
19,ILGG,≤ 0.25
20,RQPA,≤ 0.25
21,SFVN,≤ 0.25
22,GNVG,2.06
23,DMML,≤ 0.25
24,VCTC,≤ 0.25

row,Variant,enrichment ratio
1,GAKI,≤ 0.25
2,FIGG,≤ 0.25
3,QGFC,8.27
4,LDIH,≤ 0.25
5,NFNG,≤ 0.25
6,SNFM,≤ 0.25
7,LSYW,≤ 0.25
8,GPTQ,≤ 0.25
9,NASV,≤ 0.25
10,PCVR,≤ 0.25
11,ISPS,≤ 0.25
12,WMKR,≤ 0.25
13,LGCS,≤ 0.25
14,ENTN,≤ 0.25
15,IADA,≤ 0.25
16,NRNA,≤ 0.25
17,MMCK,≤ 0.25
18,ILWH,≤ 0.25
19,HQRC,≤ 0.25
20,PMWC,1.62
21,DLQN,≤ 0.25
22,KMIE,≤ 0.25
23,ECES,≤ 0.25
24,VGMN,≤ 0.25

row,Variant,enrichment ratio
1,AEYG,36.3
2,IMPS,≤ 0.25
3,MHSR,≤ 0.25
4,MAPM,≤ 0.25
5,VRKM,≤ 0.25
6,GRNS,≤ 0.25
7,TCCV,8.17
8,TECP,≤ 0.25
9,HLLV,≤ 0.25
10,SYPF,≤ 0.25
11,YSMA,≤ 0.25
12,KIRW,≤ 0.25
13,KNQY,≤ 0.25
14,RIDW,≤ 0.25
15,TENK,5.62
16,MWLA,≤ 0.25
17,QYPF,≤ 0.25
18,TLLA,0.849
19,IHTK,≤ 0.25
20,MPTR,≤ 0.25
21,SDDK,≤ 0.25
22,VMQK,≤ 0.25
23,LPGF,≤ 0.25
24,YTAN,≤ 0.25

row,Variant,enrichment ratio
1,EIYT,≤ 0.25
2,DKIV,≤ 0.25
3,RTPC,≤ 0.25
4,VPSE,≤ 0.25
5,ANFA,≤ 0.25
6,MMND,≤ 0.25
7,QIWM,≤ 0.25
8,VMGK,≤ 0.25
9,KPSH,≤ 0.25
10,DLCG,≤ 0.25
11,QIVT,≤ 0.25
12,YFFQ,0.271
13,HFHW,≤ 0.25
14,APMC,≤ 0.25
15,TRVH,0.615
16,SRNM,≤ 0.25
17,FEDT,≤ 0.25
18,TSNG,3.81
19,SACN,9.88
20,DPLQ,≤ 0.25
21,NEHF,≤ 0.25
22,WKWR,≤ 0.25
23,YNWD,≤ 0.25
24,DFGH,≤ 0.25

row,Variant,enrichment ratio
1,KCWL,≤ 0.25
2,VMDA,≤ 0.25
3,NQVV,≤ 0.25
4,KVHA,≤ 0.25
5,KCRQ,≤ 0.25
6,RMCN,≤ 0.25
7,NGIR,≤ 0.25
8,MPQI,≤ 0.25
9,VCKK,≤ 0.25
10,TFVV,≤ 0.25
11,LWEA,≤ 0.25
12,HPFG,≤ 0.25
13,KLCG,≤ 0.25
14,QRDF,≤ 0.25
15,RPDN,≤ 0.25
16,LMSP,≤ 0.25
17,MGNS,≤ 0.25
18,LIWD,≤ 0.25
19,RYPT,≤ 0.25
20,GFPI,≤ 0.25
21,IFCK,≤ 0.25
22,IPCF,≤ 0.25
23,SSQI,10.1
24,QMKD,≤ 0.25

row,Variant,enrichment ratio
1,WYNH,≤ 0.25
2,KRTD,≤ 0.25
3,WARG,≤ 0.25
4,YLPG,≤ 0.25
5,ESWS,≤ 0.25
6,WKQV,≤ 0.25
7,FDGA,≤ 0.25
8,NCHL,≤ 0.25
9,NAAK,≤ 0.25
10,LIYT,≤ 0.25
11,LSAI,0.256
12,RRKF,≤ 0.25
13,MGNR,≤ 0.25
14,FAYT,≤ 0.25
15,HQRL,≤ 0.25
16,MDAR,≤ 0.25
17,VTQY,≤ 0.25
18,LSRL,≤ 0.25
